# Measurements taken from paper PMC4336329 (PLoS ONE, 2015).
# In all, about 310,000 compounds went through this assay and about 14,000 (4.5%) showed an effect of 50% or more. Effects have a minus sign here. Some of the results follow.
# Molecular target: human ether-à-go-go-related gene (hERG) potassium channel (human, UniProt Q12809)
# Test: primary screen, population patch clamp on CHO cells stably expressing hERG
# 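Also: peak tail current of the secondary pulse compared with the same well before compound.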
# Sequence of human ether-à-go-go-related gene (hERG) potassium channel (Q12809 whole entry, looked up): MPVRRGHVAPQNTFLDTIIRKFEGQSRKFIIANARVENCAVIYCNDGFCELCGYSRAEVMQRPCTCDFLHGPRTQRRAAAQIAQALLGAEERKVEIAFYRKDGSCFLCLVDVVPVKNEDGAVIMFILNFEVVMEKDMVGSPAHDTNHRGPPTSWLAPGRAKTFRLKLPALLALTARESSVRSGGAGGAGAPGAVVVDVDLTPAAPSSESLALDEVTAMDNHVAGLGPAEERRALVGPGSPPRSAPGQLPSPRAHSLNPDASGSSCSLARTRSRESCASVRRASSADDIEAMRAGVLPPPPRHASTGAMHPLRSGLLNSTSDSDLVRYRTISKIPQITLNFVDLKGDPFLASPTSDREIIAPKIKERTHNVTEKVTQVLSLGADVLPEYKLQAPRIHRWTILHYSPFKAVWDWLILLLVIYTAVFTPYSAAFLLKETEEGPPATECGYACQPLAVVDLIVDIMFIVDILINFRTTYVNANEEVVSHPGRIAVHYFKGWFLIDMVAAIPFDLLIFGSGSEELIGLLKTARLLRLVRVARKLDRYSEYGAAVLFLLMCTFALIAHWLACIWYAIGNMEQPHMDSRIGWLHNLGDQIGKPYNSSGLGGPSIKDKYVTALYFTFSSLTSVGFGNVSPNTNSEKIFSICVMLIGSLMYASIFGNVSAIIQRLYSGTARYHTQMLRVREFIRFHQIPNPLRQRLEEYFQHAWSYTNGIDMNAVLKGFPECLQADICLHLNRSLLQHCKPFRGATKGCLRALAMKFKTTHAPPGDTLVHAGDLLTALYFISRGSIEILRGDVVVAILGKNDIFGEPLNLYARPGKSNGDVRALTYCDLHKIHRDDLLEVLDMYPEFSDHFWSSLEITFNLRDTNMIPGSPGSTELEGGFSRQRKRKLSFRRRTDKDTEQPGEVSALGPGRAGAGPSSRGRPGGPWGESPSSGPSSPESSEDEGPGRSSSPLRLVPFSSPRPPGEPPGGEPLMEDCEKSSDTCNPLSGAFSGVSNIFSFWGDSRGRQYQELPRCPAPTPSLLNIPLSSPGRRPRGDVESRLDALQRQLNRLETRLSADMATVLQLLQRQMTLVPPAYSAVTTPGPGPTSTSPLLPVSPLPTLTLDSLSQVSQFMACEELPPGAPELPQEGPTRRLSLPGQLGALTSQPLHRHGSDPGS
row,SMILES,"hERG current change (%, negative = inhibition) at 10uM [%]"
1,CS(=O)(=O)c1ccccc1-c1nnc(NC(=O)c2ccco2)o1,10.7
2,O=C(CSc1nnc(-c2ccco2)o1)c1ccc(F)c(F)c1,1.29
3,CCC1(CC)C(=O)C2=C3C1[C@H](C(=O)OC)CC(C(=O)OC)C[C@H]3n1c(=O)n(C)c(=O)n1[C@H]2C (stereo partly shown),15.8
4,COc1cc(NC(=O)COc2ccccc2Cl)ccc1NC(=O)C(C)C,6.75
5,O=C(N/N=C/c1cccc(F)c1)NC1CCCCC1,3.12
6,CCc1c(O)cc2n(c1=O)-c1ccccc1C2(C)C,5.2
7,O=C1CCC(C(=O)N2CCCCO2)CN1CCc1ccc(Cl)cc1 (stereo not shown),-7.82
8,Cc1sc(NC(=S)NC(=O)c2ccco2)c(C(N)=O)c1C,18.7
9,O=C(NNC(=S)NCC1CCCO1)c1cc(Br)ccc1Cl (stereo not shown),3.13
10,CCN(CC)S(=O)(=O)c1ccc(S(=O)(=O)N(Cc2ccccn2)Cc2ccco2)cc1,-30.6
11,CC(NC(=O)c1cccnc1Sc1ccccc1)c1ccc(S(N)(=O)=O)cc1 (stereo not shown),15.9
12,CC(C)(C)OC(=O)NC(CCNC=C1C(=O)OC(C)(C)OC1=O)C(=O)O (stereo not shown),0.158
13,Cc1cc2cc(C#N)c(N3CCOCC3)nc2cc1Cl,2.01
14,C=CCSc1n[nH]c(-c2ccccc2)n1,0.34
15,CCn1c(SCC(N)=O)nc2c1c(=O)n(C)c(=O)n2C,17.8
16,COc1ccc(N2CCN(C(=O)c3ccc4c(c3)NC(=O)C(CSCc3c(F)cccc3Cl)N4)CC2)cc1 (stereo not shown),20.5
17,CN(C)S(=O)(=O)c1ccc(Cl)c(NC(=O)CN2CCNC(=O)C2)c1,11.3
18,Cc1ccc(S(=O)(=O)n2ccc(-c3cccc(OCc4c(F)cccc4Cl)c3)n2)cc1,6.83
19,CCc1nc(N2CCC3(CC2)OCCO3)c2nnn(Cc3ccccc3)c2n1,-37.1
20,CCOc1ccc(Nc2nc(Cc3nnc(SCC(=O)NC4CCCC4)n3C)cs2)cc1,-29.8
21,COc1ccccc1N(C(=O)c1csnn1)C(C(=O)NC1CCCC1)c1ccccc1 (stereo not shown),-1.69
22,CC(=O)C1=C(O)C(=O)N(c2ccc(Br)cn2)C1c1ccc(F)cc1 (stereo not shown),16.9
23,C=CCn1c(=O)c2ccccc2n2c(SC(C)C(N)=O)nnc12 (stereo not shown),7.3
24,COc1cccc(N2CC(C(=O)Nc3nnc(SCc4cccnc4)s3)CC2=O)c1 (stereo not shown),-26.7
25,Cc1cccn2c(=O)c3cc(C(=O)NCc4cccnc4)c(=N)n(CC4CCCO4)c3nc12 (stereo not shown),-75.6
26,CCOc1ccc(/C=N/N2C(=O)C(CC(=O)Nc3ccc(F)cc3F)SC2=NC)cc1OC (stereo not shown),3.82
27,NC(=O)CSc1nnc(Cc2csc(Nc3ccc(F)cc3)n2)n1Cc1ccccc1,-3.78
28,CN(C)c1ccc(CN(C(=O)c2cccs2)C2CCS(=O)(=O)C2)cc1 (stereo not shown),-3.63

row,SMILES,"hERG current change (%, negative = inhibition) at 10uM [%]"
1,CC(=O)Nc1ccccc1Sc1ccccc1,-15.8
2,COc1cc(-c2noc(C)c2C#CC2(O)CCCCC2)cc(OC)c1OC,-7.21
3,COc1ccc(CCN2C(=O)CCC2(C)C(=O)NCc2cccnc2)cc1OC (stereo not shown),15.1
4,O=C(Cn1cccc1C(=O)c1ccccc1)NCCc1ccc(Cl)cc1,16.3
5,O=C(Nc1ccccc1)c1cccc(C(F)(F)F)c1,7.31
6,O=C(CN(CCc1ccccc1)C(=O)CNS(=O)(=O)c1ccccc1)NCC1CCCO1 (stereo not shown),7.81
7,O=C(Cn1ncc2c3ccccc3n(Cc3ccc(F)cc3)c2c1=O)N1CCC2(CC1)OCCO2,-67.2
8,CCOc1ccc(CNC(=S)N/N=C/c2cccnc2)cc1,-17.5
9,CCCCNC(=O)c1cc2nc(-c3ccccc3)cc(C(F)(F)F)n2n1,-7.95
10,CCCCCCN=CC1=C(O)C(C(=O)OC)C(C)(C)CC1=O (stereo not shown),-4.72
11,COc1ccc(NC(=O)CCS(=O)(=O)c2cccc3nonc23)cc1Cl,2.39
12,Cl.O=C(OCCN1CCCCC1)c1cccc(Cl)c1,-30.6
13,Cc1oc(-c2ccc(Cl)cc2)nc1CS(=O)CC(=O)NC1CCCCCC1 (stereo not shown),-6.93
14,CC1CN(C(=O)c2ccccc2Nc2ccc(SC(F)F)cc2)CC(C)O1 (stereo not shown),-29.2
15,CCC/C(=N/NC(=O)c1ccc2c(c1)OCO2)c1cccs1,7.75
16,N#CC1=C(SCc2ccccc2)NC(=O)C(C#N)C12CCCC2 (stereo not shown),1.97
17,C[C@H]1[C@@H](c2ccccc2)O[C@@H](c2ccccc2Br)N1C,6.28
18,O=C(Nc1ccc(Cl)c(Cl)c1)Nc1nnc(-c2ccncc2)s1,-0.965
19,CC(=O)N1CCN(c2ccc(NS(=O)(=O)c3ccc(C)cc3)cc2)CC1,11.4
20,O=C(CCCn1c(=S)[nH]c2ccsc2c1=O)Nc1ccc2c(c1)OCCO2,8.37
21,CC(=O)c1ccc(NC(=O)CSc2nc(Nc3ccccc3)nc(N3CCOCC3)n2)cc1,-17.7
22,Cc1ccc(C(=O)N2CCC3(CC2)Oc2ccc(F)cc2C(=O)C32CC(c3ccc(Cl)cc3)=NO2)s1 (stereo not shown),26
23,COC(=O)C1CC(=O)N(Cc2ccccc2)C1 (stereo not shown),23.4
24,CC1(C)NC(=O)N(CCCCOc2ccc3ccccc3c2Cl)C1=O,16.4
25,CS(=O)(=O)N1Cc2ccccc2CC1C(=O)Nc1ccccc1C(N)=O (stereo not shown),-1.25
26,Cc1c(C(=O)Nc2ccc(F)c(F)c2)oc2ccc(S(=O)(=O)N3CCCCC3)cc12,-0.731
27,O=[N+]([O-])c1cc(S(=O)(=O)C(F)(F)F)ccc1N1CCN(c2ccccc2)CC1,-14.9
